Results on 84 variants are retold here after the RNAGym collection of RNA variant scans (doi:10.1093/nar/gkz1192).

Read counts are not given, so values of variants with three or more changes are uncertain.

B1: CPEB3 Ribozyme (parent)
chain: UAACAGGGGGCCACAGCAGAAGCGUUCACGUCGCAGCCCCUGUCAGAUUCUGGUGAAUCUGCGAAUUCUGCUGUAUAUCUC

In this series the parent is B1. In words: self-cleavage, relative activity (ratio to wild type); higher = more cleavage; in vitro, sequencing. In short, it runs like this:
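Barcoded CPEB3 ribozyme mutants, produced by rounds of error-prone PCR, self-cleaved while being transcribed with T7 RNA polymerase for 5 hours at 37°C and during a subsequent 15 min DNase I step before EDTA was added. Sequencing of template-switched cDNA on Illumina gave cleaved and total reads, and DNA sequencing assigned barcodes to variants. Each variant's relative activity is its cleaved/total read fraction divided by the unmutated ribozyme's fraction, averaged across three batches. A variant needed a minimum of 5 reads.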
Turning to G7A A21G A35G U41C U43C U66A U80C, the self-cleavage was determined as 0.1.
Take G7A A13G A18U A45G U48A U58C: the self-cleavage turned out to be 0.06.
The result for G6U U25C A65U reads 0.11; that for G7A A13U A20U U31C G33A U60A U72C, 0.06; that for G7A A15G A45G G55A A57G A75U, 0.03.
The result for G7A A13G U60A reads 0.24; that for G7A A13G U41C, 0.26; that for G6C A15G U26C C40A A57G, 0.
Then G6U C17U A20G U25C U31C A47G, with 0.22; and G7A A18G U54C, with 0.2; and G7A A18G A45U, with 0.19.
Turning to G7A A28U A35G U48C A57G, the self-cleavage was determined as 0.09.
Then G6U A15G C17G U76C, with 0.09; and G7A A28G A56U U67C U76C, with 0.08.
In the case of G6U U43A U74C, the self-cleavage came out at 0.49.
Then G6U U43A U74A, with 0.46.
Take G6U C39A U51A C62A A65G: the self-cleavage worked out at 0.05.
Then G6A U54C A64U A65G U80C, with 0.15; and G6U A13U A21G C40U U48C U67C, with 0.06.
With G7A A35G U74C, the self-cleavage stood at 0.42.
Then G6U U31A A64G, with 0.14; and G7A A21G A47G U66C, with 0.04; and G6U C14U A47G U60C U78G, with 0.09.
For the variant G7A A15U U25G U26A U43C G70C, the self-cleavage is 0.05.
The result for G6A U66C U69A G73A reads 0.12.
Turning to G7A C12A U26C C39U A75G, the self-cleavage worked out at 0.04.
Then G6U U26C U43C U51C A65G, with 0.04.
The result for G7A A28G U49A U51C U80C reads 0.06; that for G7A A45U U78G, 0.23; that for G7A A13G U43C U69A, 0.12.
As for G6U G9A G22A U72A, the self-cleavage was found to be 0.07.
The result for G7A A47G U48C reads 0.05.
Then G7A A45U C50G A57G, with 0.07; and G6U C23G A45G U51C A56G, with 0.05.
Consider G6C U26A U31C A35G A56U, for which the self-cleavage came to 0.09.
As for G6U U25C A45U G46U A65G, the self-cleavage was found to be 0.05.
Regarding G6U U31A U43G U60A A65U U67C U72C, the self-cleavage came to 0.06.
Then G6U A18U U66C, with 0.31; and G6U U25C U69A, with 0.19.
With G7A A13G G63A A64C U67C, the self-cleavage was found to be 0.11.
Regarding G6C A15C A21C U25G A28C U60C, the self-cleavage turned out to be 0.
On to G7A A15G A20U A47U, for which the self-cleavage is 0.23.
Then G6U A15G U43A U48C U51C, with 0.11.
The result for G6U A35C A47G U51C reads 0.05; that for G7A A45G U54A U60A U78C U80C, 0.04; that for G6U A15G U26C A57G, 0.14.
In the case of G6A U66C U67C, the self-cleavage worked out at 0.21.
With G7A A47C U48C A56U U72C U80A, the self-cleavage was determined as 0.05.
Then G7A A45G U72A, with 0.14; and G6U A18U A28G, with 0.35; and G6U U25C U60A, with 0.17.
Then G6U G10A A20G A64G, with 0.06; and G6U A35G A57G U58A U72A, with 0.21; and G7A A20U A45U C68U U78A, with 0.05.
Then G7A A21U C32U U72C, with 0.12; and G7A A20G C50G U54C U58C U67C U69A, with 0.16; and G6C G7C A20G U43C U72A, with 0.26.
Consider G6U A13U A15G U26A C39U, for which the self-cleavage is 0.1.
Then G6U U49C U76C, with 0.15.
With G6U U43C A47G G61U U66C U78A, the self-cleavage was determined as 0.03.
Then G6U G8A A13U, with 0.11; and G6U A45G U51A U69C U72A U78C, with 0.08; and G7A A28C U76C, with 0.08.
The result for G7A A64G U76C reads 0.19.
The result for G6C A45G U78C reads 0.58; that for G6C A35G U48C, 0.46.
Take G6U C14G U25G G30C U41A U43A: the self-cleavage is 0.04.
With G6U A13U U26C A56G G63U A64G C81U, the self-cleavage amounted to 0.07.
Then G7A A47U A56G, with 0.18.
Then G6U A28G A45G A56C U69C G73A, with 0.18; and G7A A13G C23A A45G U48C U54A A65G, with 0.07.
Then G6C A35G C44A G70C U74C, with 0.19; and G7A A18G A28G G61C, with 0.12; and G6C U43C A56G, with 0.18.
Regarding G7A C12G U48C C59U U69C, the self-cleavage was 0.04.
The result for G6U A21U U43C G55A U78A reads 0.07; that for G6U A18G A20U G33A A47U U78C U80A, 0.05; that for G6U A13U A15G A57G, 0.74.
The result for G6U A20G U41C U72A reads 0.07; that for G6C U48C U60C U78C, 0.06; that for G6C G7U A15G C17U C71G, 0.04.
The result for G6C A18G A56U reads 0.08.
In the case of G6U G7A A57G U67C A77U, the self-cleavage turned out to be 0.18.
On to G7A A13C G30A C39A U67C U74A, for which the self-cleavage amounted to 0.07.
